Source: patent US20150266962A1

B1: hu08-vc-0101 antibody-drug conjugate (antibody)
heavy: EVQLVESGGGLVQPGGSLRLSCAASGFTFSRNGMSWVRQAPGKGLEWVATVSSGGSYIYYADSVKGRFTISRDNAKNSLYLQMNSLRAEDTAVYYCARQGTTALATRFFDVWGQGTLVTVSS[sequence of human IgG1 constant region not given]
light: DIQMTQSPSSLSASVGDRVTITCKASQDVGTAVAWYQQKPGKAPKLLIYSASYRSTGVPSRFSGSGSGTDFTLTISSLQPEDFATYYCQHHYSAPWTFGGGTKVEIKRTVAAPSVFIFPPSDEQLKSGTASVVCLLNNFYPREAKVQWKVDNALQSGNSQESVTEQDSKDSTYSLSSTLTLSKAAYEKHKVYACEVTHQGLSSPVTKSFNRGEC
modifications: here or on the partner: linker-payload vc-0101 on reduced cysteine residues (sites not given); linker-payload vc-0101 on reduced cysteine residues (sites not given); DAR 3.2
B2: hu08-mc-6121 antibody-drug conjugate (antibody, human IgG1, kappa)
heavy: B1 heavy
light: B1 light
modifications: here or on the partner: linker-payload mc-6121 on cysteine residues (sites not given); linker-payload mc-6121 on cysteine residues (sites not given); DAR 3.3
B3: hu08-MalPeg-6121 antibody-drug conjugate (antibody, human IgG1, kappa)
heavy: B1 heavy
light: B1 light
modifications: here or on the partner: linker-payload MalPeg-6121 on cysteine residues (sites not given); linker-payload MalPeg-6121 on cysteine residues (sites not given); DAR 3.3
B4: hu08-mc-0131 antibody-drug conjugate (antibody, human IgG1, kappa)
heavy: B1 heavy
light: B1 light
modifications: here or on the partner: linker-payload mc-0131 on cysteine residues (sites not given); linker-payload mc-0131 on cysteine residues (sites not given); DAR 3.2
B5: hu08-mc-3377 antibody-drug conjugate (antibody)
heavy: B1 heavy
light: B1 light
modifications: here or on the partner: linker-payload mc-3377 on reduced cysteine residues (sites not given); linker-payload mc-3377 on reduced cysteine residues (sites not given); DAR 4.3 (Table 17), 3.5 (Table 28b)
B6: hu08v1.0/1.0 K392C/L443C-vc-0101 ADC (antibody)
heavy: EVQLVESGGGLVQPGGSLRLSCAASGFTFSRNGMSWVRQAPGKGLEWVATVSSGGSYIYYADSVKGRFTISRDNAKNSLYLQMNSLRAEDTAVYYCARQGTTALATRFFDVWGQGTLVTVSSASTKGPSVFPLAPSSKSTSGGTAALGCLVKDYFPEPVTVSWNSGALTSGVHTFPAVLQSSGLYSLSSVVTVPSSSLGTQTYICNVNHKPSNTKVDKKV[sequence of human IgG1 Fc with K392C L443C (EU numbers) not given]
light: B1 light
modifications: here or on the partner: vc-0101 on engineered Cys 392 and Cys 443 (EU); DAR 3.7
B7: hu08-vc-6780 antibody-drug conjugate (antibody, human IgG1, kappa)
heavy: B1 heavy
light: B1 light
modifications: here or on the partner: linker-payload vc-6780 on cysteine residues (sites not given); linker-payload vc-6780 on cysteine residues (sites not given); DAR 4
B8: hu08-mc-3906 antibody-drug conjugate (antibody, human IgG1, kappa)
heavy: B1 heavy
light: B1 light
modifications: here or on the partner: linker-payload mc-3906 on cysteine residues (sites not given); linker-payload mc-3906 on cysteine residues (sites not given); DAR 3
B9: hu08v1.0/1.0 L443C-vc-0101 ADC (antibody)
heavy: EVQLVESGGGLVQPGGSLRLSCAASGFTFSRNGMSWVRQAPGKGLEWVATVSSGGSYIYYADSVKGRFTISRDNAKNSLYLQMNSLRAEDTAVYYCARQGTTALATRFFDVWGQGTLVTVSSASTKGPSVFPLAPSSKSTSGGTAALGCLVKDYFPEPVTVSWNSGALTSGVHTFPAVLQSSGLYSLSSVVTVPSSSLGTQTYICNVNHKPSNTKVDKKV[sequence of human IgG1 Fc with L443C (EU numbers) not given]
light: B1 light
modifications: here or on the partner: vc-0101 on engineered Cys 443 (EU); DAR 2.1
B10: hu08v1.0/1.0 Q347C-vc-0101 ADC (antibody, human IgG1, kappa)
heavy: EVQLVESGGGLVQPGGSLRLSCAASGFTFSRNGMSWVRQAPGKGLEWVATVSSGGSYIYYADSVKGRFTISRDNAKNSLYLQMNSLRAEDTAVYYCARQGTTALATRFFDVWGQGTLVTVSSASTKGPSVFPLAPSSKSTSGGTAALGCLVKDYFPEPVTVSWNSGALTSGVHTFPAVLQSSGLYSLSSVVTVPSSSLGTQTYICNVNHKPSNTKVDKKV[sequence of human IgG1 Fc with Q347C (EU numbers) not given]
light: B1 light
modifications: here or on the partner: vc-0101 on engineered Cys 347 (EU); DAR 2.1
B11: hu08-MalPeg-0131 antibody-drug conjugate (antibody, human IgG1, kappa)
heavy: B1 heavy
light: B1 light
modifications: here or on the partner: linker-payload MalPeg-0131 on cysteine residues (sites not given); linker-payload MalPeg-0131 on cysteine residues (sites not given); DAR 2.9
B12: hu08v1.0/1.0 K392C + L443C-mc-3377 ADC (antibody)
heavy: B6 heavy
light: B1 light
modifications: here or on the partner: mc-3377 on engineered Cys 392 and Cys 443 (EU); DAR 3.5
B13: hu08v1.0/1.0 L443C-mc-3377 ADC (antibody)
heavy: B9 heavy
light: B1 light
modifications: here or on the partner: mc-3377 on engineered Cys 443 (EU); DAR 2.3

Target: T1, human IL-13Rα2 on the surface of human tumour cell lines (human), Q14627
Assay: cell-based or functional assay

T1 sequence (Q14627 27-380): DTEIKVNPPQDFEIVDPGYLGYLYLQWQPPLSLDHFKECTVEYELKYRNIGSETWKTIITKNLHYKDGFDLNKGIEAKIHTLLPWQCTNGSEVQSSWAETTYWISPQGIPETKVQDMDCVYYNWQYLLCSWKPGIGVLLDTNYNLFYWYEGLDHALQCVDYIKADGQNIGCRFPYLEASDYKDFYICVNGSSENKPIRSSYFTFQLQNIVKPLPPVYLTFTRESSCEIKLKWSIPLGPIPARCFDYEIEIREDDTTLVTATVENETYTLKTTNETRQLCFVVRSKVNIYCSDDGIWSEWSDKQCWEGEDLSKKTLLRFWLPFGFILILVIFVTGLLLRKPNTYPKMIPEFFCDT

| Binder | IC50 (ng Ab/mL), in vitro cytotoxicity, A375 | IC50 (ng Ab/mL), in vitro cytotoxicity, PC3MM2 | IC50 (ng/mL), in vitro cytotoxicity, A375 | IC50 (ng/mL), in vitro cytotoxicity, PC3MM2 |
| --- | --- | --- | --- | --- |
| B1 | 3.8 ng Ab/mL | 2.5 ng Ab/mL | 1.7 ng/mL | 1.93 ng/mL |
| B2 | 2.4 ng Ab/mL | 1.1 ng Ab/mL |  |  |
| B3 | 3.4 ng Ab/mL | 3.5 ng Ab/mL |  |  |
| B4 | 2.1 ng Ab/mL | 1.3 ng Ab/mL |  |  |
| B5 | 2.2 ng Ab/mL | 1.2 ng Ab/mL |  |  |
| B6 |  |  | 0.63 ng/mL | 1.41 ng/mL |
| B7 | 2.2 ng Ab/mL | 1.2 ng Ab/mL |  |  |
| B8 | 2.9 ng Ab/mL | 1.5 ng Ab/mL |  |  |
| B9 |  |  | 1.41 ng/mL | 2.4 ng/mL |
| B10 |  |  | 1.65 ng/mL | 2.66 ng/mL |
| B11 | 4.9 ng Ab/mL | 2.9 ng Ab/mL |  |  |

Target: T1, human IL-13Rα2 on the surface of human …
Assay: cell-based or functional assay
Remark: another data set of the same source

| Binder | IC50 (ng Ab/mL), in vitro cytotoxicity, A375 | IC50 (ng Ab/mL), in vitro cytotoxicity, PC3MM2 |
| --- | --- | --- |
| B5 | 1.8 ng Ab/mL | 1.8 ng Ab/mL |
| B12 | 1.3 ng Ab/mL | 2.2 ng Ab/mL |
| B13 | 3.3 ng Ab/mL | 3.9 ng Ab/mL |
